# Assay results published in the supplement of paper PMC5655136.
# Values come from read counts of a selection and are noisy.
# Tested on: NB7
# Assay: fold depletion of shRNA, plasmid library share / infected cells without Dox share (9 days) (ratio); higher = more depleted after infection (more toxic, leaky expression from a Tet-inducible vector; NB7 is a neuroblastoma line without caspase-8)
# [1] = shRNA pool: CD95 ORF + CD95 3'UTR + Venus libraries
# [2] = shRNA pool: CD95L ORF + CD95L 3'UTR + Venus libraries
# 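Further: shRNA barcodes quantified by deep sequencing of PCR amplicons from cellular DNA, counts expressed as percent of each subpool, ratio averaged over two biological duplicates.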
Sequence,fold depletion of shRNA [1],fold depletion of shRNA [2]
GCACCCCCAAACATGGAAATA,3.7,–
GCACCCGGACCCAGAATACCA,0.884,–
GCACCGAGAATGTTGTATTCA,–,0.911
GCACGACTTCTTCAAGTCCGC,0.976,0.808
GCACTACTGGGCAGATGTGGG,–,0.872
GCAGAAAGCACAGAAAGGAAA,0.741,–
GCAGAACACCCCCATCGGCGA,1.13,1.29
GCAGAACAGAAAGTTCAACTG,1.27,–
GCAGAACTCCGAGAGTCTACC,–,1.01
GCAGAAGAACGGCATCAAGGC,0.647,0.324
GCAGAAGATGTAGATTGTGTG,1.66,–
GCAGAATTTAAATAAGGCTCT,3.11,–
GCAGAGAAAATTCAGACTATC,1.44,–
GCAGAGGATGAAAGATTAAGA,1.01,–
GCAGATACCTGGAACCACCTA,4.84,–
GCAGATGTAAACCAAACTTTT,1.76,–
GCAGATGTGGGCCCGCAGCAG,–,0.689
GCAGATTGAAAAGGACACCTT,–,1.52
GCAGCACGACTTCTTCAAGTC,1.18,0.775
GCAGCAGCTACCTGGGGGCAG,–,2.72
GCAGCATCTTCACTTCTAAAT,–,3.36
GCAGCCCTTCAATTACCCATA,–,1.44
GCAGCTCGCCGACCACTACCA,0.18,0.15

Sequence,fold depletion of shRNA [1],fold depletion of shRNA [2]
GCAGCTTATACATAGCAATGG,1.68,–
GCAGGAGAGTATTACTAGAGC,1.48,–
GCAGTGCCAGCTCTCCCTGGG,–,12
GCAGTGCTTCGCCCGCTACCC,0.911,0.442
GCATAATAAGCTAAAGAGGCT,–,3.48
GCATATCCTGAGCCATCGGTG,–,1.69
GCATCAAGGCCAACTTCAAGA,26,–
GCATCATGATGGCCAATTCTG,0.114,–
GCATCGACTTCAAGGAGGACG,0.918,0.633
GCATCGAGCTGAAGGGCATCG,2.48,1.91
GCATCTAACATATGATTCTGT,3.14,–
GCATGAAAAAGCAGCTACCAG,–,1.18
GCATGCTAAGTACCCAAATAG,3.79,–
GCATGGACGAGCTGTACAAGT,0.676,0.608
GCATGTGTATTTCCAGTGCAA,–,23.2
GCATTTGAGGTCAAGTAAGAA,–,1.27
GCATTTGGTCAAGATTTTGAA,–,1.83
GCATTTTACTGGCTCAAAACT,1.96,–
GCATTTTGAGCAGGAGAGTAT,2.42,–
GCATTTTTGTGAAATGAAAAC,–,0.602
GCCAAAATAGATGAGATCAAG,0.398,–
GCCAACATATTTGTAGATTTT,1.13,–
GCCAACTTCAAGATCCGCCAC,1.28,1.33

Sequence,fold depletion of shRNA [1],fold depletion of shRNA [2]
GCCAATCTTTGTACTCTTGCA,0.548,–
GCCAATGCCCCACTGGCAGCA,–,0.951
GCCAATTCTGCCATAAGCCCT,24.4,–
GCCACAACATCGAGGACGGCG,0.709,1.09
GCCACAACGTCTATATCACCG,1.55,4.92
GCCACAAGGTCTACATGAGGA,–,1.2
GCCACAAGTTCAGCGTGTCCG,0.991,0.878
GCCACCTACGGCAAGCTGACC,0.732,1.29
GCCACTTTGCCTCTAAATTAC,2.79,–
GCCAGACAAATGGAGGAATAT,–,1.51
GCCAGCTCTCCCTGGGCCCCT,–,21.1
GCCATAAGCCCTGTCCTCCAG,1.3,–
GCCATCGGTGAAACTAACAGA,–,1.3
GCCATGCCCGAAGGCTACGTC,0.976,1.15
GCCATGTGAAGAGGGAGAAGC,–,0.551
GCCCAAGTGACTGACATCAAC,1.52,–
GCCCACCCTCGTGACCACCCT,1.09,0.486
GCCCAGAAGGCCTGGTCAAAG,–,2.55
GCCCATCCTGGTCGAGCTGGA,0.916,1.35
GCCCATTTTTCTTCCAAATGC,1.17,–
GCCCCACTGGCAGCATCTTCA,–,1.25
GCCCCGTGCTGCTGCCCGACA,0.683,0.748
